Data: the antibiotic and cytotoxicity screens of Wong et al. (2023)
Some of the results follow.

Tests used:
HSkMC = human skeletal muscle cells; test: cytotoxicity call (relative viability < 0.9); settings: 10 µM
HepG2 = test: cytotoxicity call (relative viability < 0.9); settings: 10 µM
S. aureus RN4220 = test: growth inhibition call (relative growth <= 0.2); settings: 50 µM

Compound | cytotoxicity call (HSkMC) | cytotoxicity call (HepG2) | growth inhibition call (S. aureus RN4220)
C[C@@H]1CCCCO[C@@H](CN(C)Cc2ccc(C(=O)O)cc2)[C@@H](C)CN([C@@H](C)CO)C(=O)c2cc(NC(=O)Nc3ccc(C(F)(F)F)cc3)ccc2O1 | inactive | inactive | inactive
COc1ccc(-c2cnc3c(c2)C(=O)N([C@@H](C)CO)C[C@H](C)[C@H](CN(C)S(=O)(=O)c2ccc(OC)cc2)O3)cc1 | inactive | inactive | inactive
C[C@@H]1CN([C@@H](C)CO)C(=O)c2cc(NC(=O)Nc3ccc(C(F)(F)F)cc3)ccc2O[C@@H](C)CCCCO[C@H]1CN(C)C(=O)Nc1cccc2ccccc12 | inactive | inactive | inactive
COc1ccc(NC(=O)N(C)C[C@@H]2Oc3ncc(C#C[C@H](C)O)cc3C(=O)N([C@H](C)CO)C[C@@H]2C)cc1 | inactive | inactive | inactive
C=CC[C@H](CC(=O)NCCO)C(=O)N[C@H](COC(=O)[C@@H](CC=C)CC(=O)OC(C)(C)C)Cc1c[nH]c2ccccc12 | inactive | inactive | inactive
C[C@@H]1CN([C@@H](C)CO)C(=O)CCCn2cc(nn2)CO[C@@H]1CN(C)C(=O)Nc1ccnc(N2CCOCC2)c1 | inactive | inactive | inactive
C[C@H](CO)N1C[C@H](C)[C@@H](CN(C)Cc2ccc3c(c2)OCO3)OCCCC[C@H](C)Oc2ccc(NS(=O)(=O)c3cccs3)cc2C1=O | inactive | inactive | inactive
Cc1ccc(S(=O)(=O)Nc2ccc3c(c2)C(=O)N([C@H](C)CO)C[C@@H](C)[C@H](CN(C)Cc2ccc(C(F)(F)F)cc2)OCCCC[C@@H](C)O3)cc1 | inactive | active | inactive
C[C@@H]1CN([C@H](C)CO)C(=O)c2cc(NS(=O)(=O)c3cn(C)cn3)ccc2O[C@H]1CN(C)S(=O)(=O)c1ccc(Cl)cc1 | inactive | inactive | inactive
C[C@H]1CN([C@@H](C)CO)C(=O)Cc2cc(N(C)C)ccc2O[C@H]1CN(C)S(=O)(=O)c1ccc(Cl)cc1 | inactive | active | inactive
C[C@@H]1CCCCO[C@@H](CN(C)C(=O)Nc2ccc3c(c2)OCO3)[C@@H](C)CN([C@H](C)CO)C(=O)c2cc(NC(=O)NC3CCCCC3)ccc2O1 | inactive | inactive | inactive
C[C@H](CO)N1C[C@H](C)[C@@H](CN(C)Cc2ccncc2)Oc2ccc(NC(=O)CCN3CCOCC3)cc2C1=O | inactive | inactive | inactive
C[C@@H]1CCCCO[C@@H](CN(C)C(=O)CCC(F)(F)F)[C@H](C)CN([C@H](C)CO)C(=O)c2cc(NS(=O)(=O)c3ccc(Cl)cc3)ccc2O1 | inactive | inactive | inactive
COCC(=O)N(C)C[C@@H]1Oc2cc(C#CCC3CCCC3)ccc2S(=O)(=O)N([C@@H](C)CO)C[C@H]1C | inactive | inactive | inactive
C[C@@H]1CCCCO[C@@H](CN(C)Cc2ccc(C(F)(F)F)cc2)[C@@H](C)CN([C@H](C)CO)C(=O)c2cc(NS(=O)(=O)c3ccc(F)cc3)ccc2O1 | inactive | active | inactive
C[C@H]1CCCCO[C@@H](CN(C)C(=O)Nc2cccc3ccccc23)[C@@H](C)CN([C@@H](C)CO)C(=O)c2cc(NS(=O)(=O)c3ccccc3)ccc2O1 | inactive | inactive | inactive
COC1=C2C[C@H](C)C[C@H](OC)[C@@H](O)[C@H](C)/C=C(\C)[C@H](OC(N)=O)[C@H](OC)/C=C/C=C(\C)C(=O)NC(=CC1=O)C2=O | inactive | active | inactive
C[C@@H]1CCCCO[C@H](CN(C)C(=O)Cc2ccccc2)[C@@H](C)CN([C@@H](C)CO)C(=O)c2cc(NC(=O)C3CCCCC3)ccc2O1 | inactive | inactive | inactive
C[C@@H]1CN([C@@H](C)CO)C(=O)c2cc(NC(=O)CCN3CCOCC3)ccc2O[C@H]1CN(C)Cc1ccc2c(c1)OCO2 | inactive | inactive | inactive
O=C(C[C@H]1CC[C@@H](NC(=O)CN2CCOCC2)[C@H](CO)O1)NCc1cccc(F)c1 | inactive | inactive | inactive
C[C@@H]1CN([C@H](C)CO)C(=O)c2cc(NC(=O)CCCCCC(=O)Nc3ccccc3N)ccc2O[C@H]1CN(C)C(=O)Nc1ccccc1 | inactive | inactive | inactive
C[C@@H]1CN([C@H](C)CO)C(=O)c2cc(C#CC(C)(C)O)cnc2O[C@H]1CN(C)C(=O)CN(C)C | inactive | inactive | inactive
